Hit rate of the full screen: of about 310,000 compounds, about 2,200 (0.71%) showed an effect of 50% or more. The effect is printed as a negative number. The list shows a part of the results.
target: human ether-à-go-go-related gene (hERG) potassium channel (human, UniProt Q12809); experiment: primary screen, population patch clamp on CHO cells stably expressing hERG
Sequence (Q12809 whole entry, looked up): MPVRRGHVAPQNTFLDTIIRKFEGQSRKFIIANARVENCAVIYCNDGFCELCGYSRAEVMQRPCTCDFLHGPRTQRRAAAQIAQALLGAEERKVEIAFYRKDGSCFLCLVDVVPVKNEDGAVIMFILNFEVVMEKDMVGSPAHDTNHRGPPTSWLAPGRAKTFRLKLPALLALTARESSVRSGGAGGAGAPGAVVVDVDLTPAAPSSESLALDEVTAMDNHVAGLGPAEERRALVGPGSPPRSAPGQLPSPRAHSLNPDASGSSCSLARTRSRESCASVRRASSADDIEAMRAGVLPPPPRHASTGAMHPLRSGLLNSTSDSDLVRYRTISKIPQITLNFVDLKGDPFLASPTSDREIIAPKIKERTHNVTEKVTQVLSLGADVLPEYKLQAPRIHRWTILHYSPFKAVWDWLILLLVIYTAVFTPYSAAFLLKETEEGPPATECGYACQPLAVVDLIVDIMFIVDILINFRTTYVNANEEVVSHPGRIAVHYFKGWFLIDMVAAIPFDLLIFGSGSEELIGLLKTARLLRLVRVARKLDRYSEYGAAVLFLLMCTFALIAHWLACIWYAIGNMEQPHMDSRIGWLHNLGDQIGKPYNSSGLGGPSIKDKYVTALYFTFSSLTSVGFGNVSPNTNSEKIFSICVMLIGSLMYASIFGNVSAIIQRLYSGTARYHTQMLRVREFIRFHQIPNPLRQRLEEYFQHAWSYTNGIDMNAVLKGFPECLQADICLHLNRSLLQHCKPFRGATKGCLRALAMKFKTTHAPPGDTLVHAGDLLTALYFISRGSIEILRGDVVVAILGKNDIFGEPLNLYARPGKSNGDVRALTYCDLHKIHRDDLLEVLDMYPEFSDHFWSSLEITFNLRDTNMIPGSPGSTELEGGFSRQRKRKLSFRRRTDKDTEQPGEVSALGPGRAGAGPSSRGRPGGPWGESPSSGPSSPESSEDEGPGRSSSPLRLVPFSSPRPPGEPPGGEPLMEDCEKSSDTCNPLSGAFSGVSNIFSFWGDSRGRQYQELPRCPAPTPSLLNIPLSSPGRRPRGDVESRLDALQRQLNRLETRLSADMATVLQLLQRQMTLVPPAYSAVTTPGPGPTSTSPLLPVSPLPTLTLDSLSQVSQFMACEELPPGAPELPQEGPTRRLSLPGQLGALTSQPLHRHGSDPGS

| SMILES | hERG current change (%, negative = inhibition) at 1uM |
| --- | --- |
| CC(C)(CO)NCc1cccc(OCc2ccc(Cl)cc2)c1 | -5.35% |
| COC(=O)Cc1cc(=O)n2[nH]c(C)c(-c3ccccc3)c2n1 | 6.12% |
| CC(/C=C/c1cccc([N+](=O)[O-])c1)=N\NC(=O)c1ccncc1 | -8.67% |
| CCC(=NCCc1c(C)[nH]c2ccc(C)cc12)C1=C(O)CC(c2ccccc2)CC1=O (stereo not shown) | 12.1% |
| COc1cccc(-n2c(CN3CCN(c4ccc(C)cc4)C(C)C3)nc3ccc([N+](=O)[O-])cc3c2=O)c1 (stereo not shown) | 3.38% |
| COc1ccc(CNC(=O)C(=O)NCC2OCCN2S(=O)(=O)c2ccccc2)cc1 (stereo not shown) | 5.84% |
| COc1ccc(OCC(=O)Nc2ccc(N3CCCCC3)cc2)cc1 | 6.16% |
| CCCN1C(=O)/C(=N\OCC(=O)NCC(F)(F)F)c2ccccc21 | 2.02% |
| COc1ccc(C2(C(=O)N3CCOCC3)CCOCC2)cc1OC | 22.3% |
| CCC1Oc2ccccc2N(CC(=O)NCCC2=CCCCC2)C1=O (stereo not shown) | 1.04% |
| COc1ccc2c(c1)cc1c(=O)n(CC(=O)NCCCOC(C)C)nc(C)n12 | 19.5% |
| CN(C)c1cc(N)c2ccccc2n1.O=C(O)c1cc(=O)[nH]c(=O)[nH]1 | -0.834% |
| Cc1cc(C)nc(SCc2cn3cc(Cl)ccc3n2)n1 | 3.34% |
| C=CC[N+](C)(C)CC(=O)OCc1ccccc1.[Br-] | -12.6% |
| Cc1nn(-c2ccccc2)c(C)c1CN | -2.59% |
| CCN(c1ccc(C)cc1C)S(=O)(=O)c1nnc(NC(=O)C(C)C)s1 | 12.5% |
| CSc1ccccc1NC(=S)Nc1cc(C)cc(C)c1 | 11.1% |
| CCOCCCNC(=O)/C=C1\Sc2ccccc2N(Cc2ccccc2F)C1=O | 5.71% |
| CCCCN1CCCCC1C(=O)Nc1c(C)cccc1C.Cl (stereo not shown) | 6.7% |
| CCOC(=O)Cc1csc(NC(=O)CSc2nc3cccnc3n2CC)n1 | 4.39% |
| O=C(NCCN1C(=O)S/C(=C\c2cccs2)C1=O)c1ccco1 | 1.6% |
| CCN(CC)S(=O)(=O)c1cc(NS(=O)(=O)c2cccc(Cl)c2Cl)ccc1C | 16.4% |
| CCCCN(C(=S)Nc1cccc(SC)c1)C1CCN(C(C)=O)CC1 | -5.63% |
| COc1ccc(-n2c(Cc3cccn3C)nnc2SCC(=O)Nc2ccc(Cl)cc2)cc1 | -1.58% |
| Cc1[nH]c2ccccc2c1C(=O)COC(=O)c1c(-c2c(F)cccc2Cl)noc1C | 12.1% |
